{"source": "ChEMBL document CHEMBL4888484", "about": "“Replenishing the malaria drug discovery pipeline: Screening and hit evaluation of the MMV Hit Generation Library 1 (HGL1) against asexual blood stage Plasmodium falciparum ,using a nano luciferase reporter read-out” (2022)", "note": "Hit rate of the full screen: of about 150,000 compounds, about 540 (0.36%) showed an effect of 50% or more. The list shows a part of the results.", "data": [{"tested_on": "Plasmodium falciparum", "assay": "Primary screen in NF54 nanoGlo assay, in single point, at 2uM, 72h; a lower Z score goes with more inhibition", "format": "functional, Erythrocyte", "settings": "timepoint 72 hour", "units": {"% Inhibition": "%"}, "values": [{"molecule": "CCCc1nc(C(=O)NCc2cn3cccnc3n2)cs1", "% Inhibition": -15, "Z score": 2.92}, {"molecule": "CCOC(=O)C1=C(c2ccccc2)S/C(=C2/C(=S)C(C)(C)N(C(C)=O)c3cc(OCC)ccc32)S1", "% Inhibition": 7, "Z score": -0.87}, {"molecule": "Cc1cc(C(=O)N(CC(=O)O)C2CC2)c(C)n1-c1nccs1", "% Inhibition": 3, "Z score": -0.53}, {"molecule": "Cn1ccc(C(=O)N2CC[C@@]3(CCCN(CC4CCC4)C3=O)C2)n1", "% Inhibition": 2, "Z score": -0.44}, {"molecule": "Cc1nc(C(=O)N2CC[C@H]2c2cccs2)cs1", "% Inhibition": -2, "Z score": 0.38}, {"molecule": "CC[C@H](OC1CCCC1)C(=O)Nc1cccc(C)n1", "% Inhibition": 1, "Z score": -0.13}, {"molecule": "COCCC1(CNC(=O)Nc2ccc(C(=O)OC)nn2)CC1", "% Inhibition": -18, "Z score": 1.62}, {"molecule": "C[C@H](NC(=O)C1CCC1)C(=O)Nc1nnc(C2CC2)s1", "% Inhibition": -15, "Z score": 1.71}, {"molecule": "COC(=O)[C@H]1CN(Cc2ccc(F)cc2C)CCS(=O)(=O)C1", "% Inhibition": -17, "Z score": 2.21}, {"molecule": "COCc1cc(CC2(NCc3ccc(N(C)C)cc3)COC2)no1", "% Inhibition": 0, "Z score": 0.01}, {"molecule": "CN1CCN2[C@@H](C1)CN(Cc1ccccc1)C[C@@]2(C)CO", "% Inhibition": 20, "Z score": -3.12}, {"molecule": "O=C(c1cccs1)N1CCC(CCOc2ccc(F)cc2)CC1", "% Inhibition": -2, "Z score": 0.36}, {"molecule": "CC(C)[C@H](CCO)NC(=O)CC1CCCCC1", "% Inhibition": -14, "Z score": 2.56}, {"molecule": "CCOc1ccc(NC(=O)Cn2nc3ccc(C(=O)Nc4ccc(C)cc4)cn3c2=O)cc1", "% Inhibition": -8, "Z score": 0.81}, {"molecule": "CC1CCOC1C(=O)NC(c1ccncc1)c1cc2ccccc2o1", "note": "(stereo not given)", "% Inhibition": -1, "Z score": 0.11}, {"molecule": "CO[C@H]1C[C@H]2CN(C(=O)CCn3cnnn3)[C@@H](Cc3ccccc3)C(=O)N2C1", "% Inhibition": -6, "Z score": 0.96}, {"molecule": "C[C@@H](C(=O)Nc1cc(C(F)(F)F)ccc1N1CCOCC1)N(C)Cc1ccc2c(c1)OCO2", "% Inhibition": -13, "Z score": 1.7}, {"molecule": "Cc1cc(C(=O)N(CCC(=O)O)CC(C)C)ccc1F", "% Inhibition": -1, "Z score": 0.15}, {"molecule": "CCNC(=O)NC[C@H]1CCN(Cc2cc3ccc(C)cc3nc2O)C1", "% Inhibition": -2, "Z score": 0.37}, {"molecule": "CCOc1nc(C(=O)N2Cc3ccccc3C[C@@H]2CC)co1", "% Inhibition": 14, "Z score": -1.82}, {"molecule": "CCN(CC)CC(=O)N(CC)C1CCCC1", "% Inhibition": -6, "Z score": 0.66}, {"molecule": "CC(C)c1nccc(CN(CCCO)Cc2ccc(Cl)cc2)n1", "% Inhibition": 0, "Z score": 0.07}, {"molecule": "C[C@@H](Cn1cccn1)NC(=O)c1cc(-c2ccc(F)cc2)nc2ncnn12", "% Inhibition": -22, "Z score": 4.37}, {"molecule": "CCn1c(-c2cccc(C#N)c2)nnc1N(Cc1cccc(OC)c1)C[C@H]1CCCO1", "% Inhibition": -10, "Z score": 1.51}, {"molecule": "COC(=O)[C@@H](NC(=O)CC1(c2ccc(OC)cc2)CC(=O)N(C2CCCC2)C1=O)c1ccccc1", "note": "(stereo not given in full)", "% Inhibition": -14, "Z score": 1.9}, {"molecule": "CN1CC[C@H](CNC(=O)c2cc(C(F)F)ncn2)CC1=O", "% Inhibition": -9, "Z score": 0.91}, {"molecule": "c1ccc(-c2nnc(N3CCCNCC3)s2)cc1", "% Inhibition": -3, "Z score": 0.29}, {"molecule": "O=C1N[C@H]2C[C@@H](C(=O)NC[C@H]3O[C@H](CCOc4cc(-c5ccncc5)ccc41)CC[C@@H]3O)N(Cc1ccccc1)C2", "% Inhibition": 17, "Z score": -2.6}, {"molecule": "CN(C(=O)c1cncc(F)c1)c1ncccc1C#N", "% Inhibition": -15, "Z score": 1.95}, {"molecule": "CC1(C)CN([C@@H](CNCc2ncc[nH]2)c2ccc(Cl)cc2)CCO1", "% Inhibition": -3, "Z score": 0.41}, {"molecule": "COc1ccc(C(Nc2cncc(CN(C)C)n2)[C@H]2C[C@@H](O)C2)cn1", "note": "(stereo not given in full)", "% Inhibition": -17, "Z score": 1.54}, {"molecule": "C#CCCC1(CCC(=O)NCc2cccnn2)N=N1", "% Inhibition": -13, "Z score": 1.65}, {"molecule": "O=C1CCC(C(=O)NCC2CC3c4ccccc4C2c2ccccc23)CN1", "note": "(stereo not given)", "% Inhibition": -5, "Z score": 0.52}, {"molecule": "O=C(Cn1cnnn1)N(CC1CCC1)c1ccccc1", "% Inhibition": -13, "Z score": 1.65}, {"molecule": "Clc1ccccc1CNCc1cn(C2CCC2)nn1", "% Inhibition": -2, "Z score": 0.36}, {"molecule": "CCc1cccc2c1N(C(=O)c1oc(C)nc1C)CC2", "% Inhibition": -4, "Z score": 0.68}, {"molecule": "Cc1ccc(CNC(=O)N2CCC3(CC2)OCC(=O)N3C)c(N2CCCC2)c1", "% Inhibition": -11, "Z score": 1.82}, {"molecule": "O=C(NCCN1CCOCC1)c1ccccc1N1C(=O)[C@@H]2Cc3c([nH]c4ccccc34)C(c3ccccc3)N2C1=O", "note": "(stereo not given in full)", "% Inhibition": 3, "Z score": -0.35}, {"molecule": "COc1nc(N(C)C)nc(N(OC)S(=O)(=O)c2ccccc2)n1", "% Inhibition": 25, "Z score": -2.79}, {"molecule": "Cc1c(Cl)cccc1NC(=O)[C@@H]1CCCO1", "% Inhibition": 2, "Z score": -0.27}, {"molecule": "CCO[C@H]1CCCN(C(=O)NCc2c(C)cc(C)[nH]c2=O)C1", "% Inhibition": 2, "Z score": -0.29}, {"molecule": "CCCCS(=O)(=O)N1CCCCCC1", "% Inhibition": -12, "Z score": 1.62}, {"molecule": "Cc1c(C(=O)NCC#C[C@@H]2CCCCO2)c2ccccc2n(C)c1=O", "% Inhibition": -9, "Z score": 1.69}, {"molecule": "Cc1c(F)cccc1NC(=O)N(C)[C@@H](C)C1CCN(C)CC1", "% Inhibition": -5, "Z score": 0.88}, {"molecule": "Cc1ccc(C(=O)NCC#N)c(O)c1C", "% Inhibition": -7, "Z score": 0.64}, {"molecule": "COc1cccc2c1CCCCN2Cc1nnn(C(C)(C)C)n1", "% Inhibition": 4, "Z score": -0.84}, {"molecule": "CNc1nc(Nc2ccc3c(c2)OCCO3)nc2ccccc12", "% Inhibition": 89, "Z score": -16.08}, {"molecule": "O=S1(=O)CCC(CNc2ncc(F)cn2)CC1", "% Inhibition": -6, "Z score": 0.71}, {"molecule": "CC(C)c1ncc(CN(C)[C@@H](C)c2cccnc2)cn1", "% Inhibition": -10, "Z score": 1.36}, {"molecule": "Cc1nc(N(C)C)nc(N(C)Cc2ccco2)c1C", "% Inhibition": 5, "Z score": -0.84}, {"molecule": "COCCN1C(=O)N[C@@](Cc2ccccc2Cl)(C2CCN(C(=O)c3cccnc3C)CC2)C1=O", "% Inhibition": -9, "Z score": 1.22}, {"molecule": "Cc1ccn2c(C(=O)NCc3cc(F)ccc3C)nnc2n1", "% Inhibition": -17, "Z score": 3.23}, {"molecule": "N#CCN(c1cc(F)cc(F)c1)S(=O)(=O)c1cccn2cnnc12", "% Inhibition": 11, "Z score": -1.34}, {"molecule": "CCn1nc(C(=O)N2CCN(C3CCCCC3)CC2)c2c1CCOC2", "% Inhibition": -7, "Z score": 0.9}, {"molecule": "COc1cc2c(cc1C(=O)N(C)Cc1nnc3n1CCOCC3)OCO2", "% Inhibition": -7, "Z score": 1.25}, {"molecule": "CC(=O)N(C)CCc1noc(-c2cc(-c3ccccc3)no2)n1", "% Inhibition": -21, "Z score": 3.02}, {"molecule": "Cn1c(N)c(-c2c(-c3ccc(Cl)s3)[nH]c3c2c(=O)n(C)c(=O)n3C)c(=O)n(C)c1=O", "% Inhibition": 34, "Z score": -3.88}, {"molecule": "O=C([C@@H]1COc2cc(S(=O)(=O)N3CCN(Cc4ccccc4)CC3)ccc2O1)N1CCCCCC1", "% Inhibition": -25, "Z score": 4.83}, {"molecule": "C[C@]1(C(=O)NCc2cncc(O)c2)C[C@@H]1c1ccccc1", "% Inhibition": -2, "Z score": 0.31}, {"molecule": "[O-][n+]1ccc(-c2ccc(Cl)cc2)nc1", "% Inhibition": -13, "Z score": 2.44}, {"molecule": "COCCCNC(=O)C1CCN(c2c(C)n(-c3ccccc3)c(=O)n(CC(C)C)c2=O)CC1", "% Inhibition": 31, "Z score": -0.45}, {"molecule": "Cc1cc(C)n2cc(CN3CC[C@@H](C(N)=O)c4ccccc43)nc2n1", "% Inhibition": -1, "Z score": 0.14}, {"molecule": "CC(C)S(=O)(=O)CC(=O)N1CC(n2cc(-c3ccccc3)nn2)C1", "% Inhibition": -10, "Z score": 1.69}, {"molecule": "O=C(CCn1cccn1)NCC1CCCC1", "% Inhibition": 3, "Z score": -0.43}, {"molecule": "CN(C[C@H]1COc2ccccc2O1)C(=O)c1cc2ccccc2[nH]1", "% Inhibition": 0, "Z score": -0.06}, {"molecule": "COCC(=O)Nc1ccccc1N(C)C", "% Inhibition": -8, "Z score": 0.8}, {"molecule": "CN(C(=O)c1ccccc1)C1CC2CCC(C1)N2C(=O)Cc1ccoc1", "note": "(stereo not given)", "% Inhibition": 21, "Z score": -2.69}, {"molecule": "COc1ccc(-c2ccc(C)c(C(F)(F)F)c2)cc1Cc1nnn[nH]1", "% Inhibition": -9, "Z score": 1.78}, {"molecule": "CC1CCCC(OCC(=O)NCCc2nncn2C(C)C)C1", "note": "(stereo not given)", "% Inhibition": 2, "Z score": -0.18}, {"molecule": "Cn1cnc2cc(C(=O)Nc3nc(-c4ccccc4)cs3)cnc21", "% Inhibition": 23, "Z score": -3.71}, {"molecule": "O=C(Cc1cccc(O)c1)Nc1ccc2oc(C3CC3)nc2c1", "% Inhibition": -10, "Z score": 1.33}, {"molecule": "NC(=O)C(Cc1ccccc1)NC(=O)C1CC12CCCc1ccccc12", "note": "(stereo not given)", "% Inhibition": -14, "Z score": 1.93}, {"molecule": "CCc1csc(NC(=O)N(C)C[C@H](C)C(=O)NC)n1", "% Inhibition": 1, "Z score": -0.17}, {"molecule": "Clc1ccc2c(c1)C1OCCC1C(c1ccccc1)N2", "note": "(stereo not given)", "% Inhibition": -2, "Z score": 0.43}, {"molecule": "Cc1nc(N)ccc1-c1ccc(C(=O)NCCCN2CCC[C@H](O)C2)cc1", "% Inhibition": 4, "Z score": -0.49}, {"molecule": "O=C(c1cccs1)N1CCC(Cc2nnc(-c3ccccc3)o2)CC1", "% Inhibition": -15, "Z score": 2.8}, {"molecule": "COc1ccccc1-c1[nH]c2c(c1[C@H]1C(=O)Nc3ccccc31)c(=O)n(C)c(=O)n2C", "% Inhibition": 8, "Z score": -0.83}, {"molecule": "Cc1nc2c(-c3ccc(Cl)cc3)cnn2c2c1CCC2", "% Inhibition": -8, "Z score": 1.44}, {"molecule": "COc1cc(=O)c(C(=O)N2CCCCCC2)nn1-c1ccc(F)c(F)c1", "% Inhibition": 36, "Z score": -1.02}, {"molecule": "O=C(Cc1ccc(C2CCC2)cc1)NCc1nnc2n1CCNC2=O", "% Inhibition": -7, "Z score": 1.44}, {"molecule": "Cc1noc(C)c1CN1C[C@@H]2Oc3cc(F)ccc3C(=O)N(C)[C@@H]2C1", "% Inhibition": 91, "Z score": -10.61}, {"molecule": "c1ccc(-c2ncn(CCc3c[nH]cn3)c2-c2cccc3nonc23)cc1", "% Inhibition": 7, "Z score": -1.19}, {"molecule": "COc1cc(C)cc(OC)c1-c1n[nH]c(C(=O)N(C)C)n1", "% Inhibition": -7, "Z score": 0.95}, {"molecule": "CCO[C@H]1CCCN(c2cc(Br)cc(F)c2C(N)=O)C1", "% Inhibition": 17, "Z score": -2.42}, {"molecule": "CC(C)Oc1ccc([C@@H](CCNCc2ccco2)C2CCCCC2)cc1", "% Inhibition": -5, "Z score": 0.78}]}]}
